Assay results from paper PMC6699087, “Dynamic Aha1 co‐chaperone binding to human Hsp90” (Protein Science : A Publication of the Protein Society, 2019).

Biological target: T1, human Hsp90β (heat shock protein of 90 kDa), full-length (human, UniProt P08238)
T1 construct: Human Hsp90β, full length; N-terminal (Hsp90N), charged linker, middle (Hsp90M) and C-terminal (Hsp90C) domains; For NMR: selective [1H-13C] labelling of isoleucine δ1 methyl groups in fully deuterated media; TEV cleavage is told for Aha1 only; also called full-length Hsp90; Hsp90 dimer; source: E. coli BL21(DE3), purified (Ni2+-NTA, Superdex 200 SEC)
Assay: NMR titration; methyl-TROSY of 80-100 uM isoleucine-labelled Hsp90 or Hsp90NM, Aha1 added (up to molar ratio 1:4); no nucleotide; 25°C; 50 mM sodium phosphate/300 mM NaCl/1 mM DTT pH 7.2, 100% D2O
Settings: both partners purified

T1 sequence (P08238 whole entry): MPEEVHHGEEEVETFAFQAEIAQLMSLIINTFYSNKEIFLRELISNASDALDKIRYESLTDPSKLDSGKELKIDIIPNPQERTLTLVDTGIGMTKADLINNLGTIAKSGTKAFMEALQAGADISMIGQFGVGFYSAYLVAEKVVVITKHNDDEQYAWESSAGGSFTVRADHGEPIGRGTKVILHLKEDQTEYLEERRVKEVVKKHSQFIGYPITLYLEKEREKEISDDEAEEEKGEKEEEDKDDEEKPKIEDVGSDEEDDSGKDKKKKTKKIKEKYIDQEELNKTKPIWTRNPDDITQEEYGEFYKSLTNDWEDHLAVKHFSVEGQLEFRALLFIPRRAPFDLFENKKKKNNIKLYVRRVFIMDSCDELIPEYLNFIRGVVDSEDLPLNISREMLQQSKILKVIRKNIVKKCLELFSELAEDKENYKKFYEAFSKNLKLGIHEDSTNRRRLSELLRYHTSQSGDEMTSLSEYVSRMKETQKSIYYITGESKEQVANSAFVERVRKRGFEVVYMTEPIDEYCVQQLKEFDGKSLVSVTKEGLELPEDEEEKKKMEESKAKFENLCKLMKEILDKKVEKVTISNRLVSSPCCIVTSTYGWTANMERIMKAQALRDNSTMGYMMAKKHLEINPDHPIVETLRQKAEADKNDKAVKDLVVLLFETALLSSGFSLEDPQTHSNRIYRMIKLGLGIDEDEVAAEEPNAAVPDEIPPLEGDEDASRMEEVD

B1: E67K-Aha1 (natural protein)
chain: not shown
notes: Human Aha1 with the mutation E67K; also called E67K variant; mutant protein E67K-Aha1
binding result: binds
